How the values were obtained:
EE-Orai1-His8 = target: T1, EE-Orai1-His8 (UniProt Q96D31 1-301, glycosylated and unglycosylated forms); test: GST pull-down with purified proteins
T1 construct: Purified from Hi5 insect cells in DDM; also called Orai1 protein containing C-terminal octa-histidine and N-terminal EEYMPME (EE) tags; not shown: C-terminal His8 (octa-histidine) tag
Procedure: GST Pull-down Assays. For GST pull-down assays, either GST-CAD (0.16 μM) or GST (0.15 μM) was incubated with EE-Orai1-His8 (0.1 μM) for 1 h in buffer containing (in mM): 20 Tris-HCl (pH 8.0), 150 NaCl, 20 imidazole, and 1 DTT with protease inhibitors. After addition of glutathione sepharose the beads were centrifuged, washed with the above buffer, and the precipitated proteins were eluted with boiling SDS and analyzed by SDS-PAGE and Western blotting.

myc-Orai1 = target: T2, myc-Orai1 (UniProt Q96D31 1-301); test: fluorescence localisation in HEK 293 cells
T2 construct: also called N-terminally myc-tagged WT Orai1; not shown: N-terminal myc tag
Procedure: Confocal Microscopy. 6 h after transfection, HEK 293 cells were plated onto sterilized coverslips coated with poly-D-lysine and maintained in complete DMEM for an additional 12-18 h before imaging in Ringer's solution containing (in mM): 155 NaCl, 4.5 KCl, 2 CaCl2, 1 MgCl2, 10 D-glucose, and 5 Na-Hepes, pH 7.4. To deplete stores, cells were treated with 1 μM TG in Ca2+-free Ringer's (prepared by substituting 2 mM MgCl2 and 1 mM EGTA for CaCl2) for 10 min. eGFP and mCherry were excited simultaneously at 488 and 594 nm, respectively, on a Leica SP2 AOBS inverted confocal microscope equipped with a PL APO 100×/NA 1.4 oil immersion objective. Fluorescence emissions were collected at 615-840 nm (mCherry) and 510-570 nm (eGFP). All experiments were performed at 22-25° C.
CAD Associates with Orai1 in vivo and in vitro. Because cytosolic CAD is a potent activator of Orai1 channels and is not associated with the ER, we hypothesized that CAD binds to Orai1. To test this idea, we first expressed YFP-CAD with or without myc-Orai1 in HEK 293 cells and examined its intracellular localization. […] GFP-myc-Orai1 was detected in the immunoprecipitates from cells co-expressing CAD and Orai1 but not from cells expressing CAD or Orai1 alone (FIG. 3B).

Sequence of myc-Orai1 (Q96D31 whole entry): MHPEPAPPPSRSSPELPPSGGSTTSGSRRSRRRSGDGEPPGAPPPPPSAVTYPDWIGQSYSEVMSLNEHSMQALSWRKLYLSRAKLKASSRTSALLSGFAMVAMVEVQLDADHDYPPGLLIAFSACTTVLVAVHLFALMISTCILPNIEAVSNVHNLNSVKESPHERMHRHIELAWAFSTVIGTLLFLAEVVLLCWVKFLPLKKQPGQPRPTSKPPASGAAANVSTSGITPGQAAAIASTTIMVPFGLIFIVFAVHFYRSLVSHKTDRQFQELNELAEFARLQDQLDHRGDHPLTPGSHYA
Sequence of EE-Orai1-His8 (Q96D31 other isoform, or with tags, fused parts or gaps limits assumed): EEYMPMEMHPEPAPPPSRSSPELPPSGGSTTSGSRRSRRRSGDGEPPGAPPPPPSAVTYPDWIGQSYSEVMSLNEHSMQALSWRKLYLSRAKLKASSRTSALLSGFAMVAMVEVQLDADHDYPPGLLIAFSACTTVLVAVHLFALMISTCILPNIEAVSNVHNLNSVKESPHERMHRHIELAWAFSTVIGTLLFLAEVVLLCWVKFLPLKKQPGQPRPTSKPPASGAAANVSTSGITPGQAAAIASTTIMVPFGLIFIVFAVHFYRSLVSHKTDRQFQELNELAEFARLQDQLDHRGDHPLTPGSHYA

| binding result (myc-Orai1) | Binder | binding result (EE-Orai1-His8) |
| --- | --- | --- |
|  | GST (other, Negative control of the pull-down; also called GST alone) not shown | no binding (tested: GST 0.15 µM with EE-Orai1-His8 0.1 µM) |
| binds | YFP-CAD (other, not shown: YFP tag from vector pDS-YFP-X) not shown |  |

— patent publication US20120165265A1 (published 2012)
